Hit rate of the full screen: of about 52,000 compounds, about 1,700 (3.3%) were called active. No stated cut-off is given here; in the data, active means survival mostly below about 52% (no sharp cut-off); inactive means mostly above about 56%. The list shows a part of the results.
The compounds below were run on Wild type (assay: growth inhibition of S. aureus wild type versus tarO mutant, primary screen, teichoic acid synthesis inhibitors, RN4220, OD600 (AID 463173)). Conditions: S. aureus RN4220 wild type/DeltatarO growth, OD600, 18 h, stronger effect = lower value, screened at 18.75 µg/mL (by protocol).
CCCn1cc(S(=O)(=O)c2ccc(C)cc2)c(=O)c2cc(F)c(N3CCCC3)cc21 was tested, and the survival was inactive: 99%. In the case of COc1cc(NC(=O)c2ccc(C)c(Cl)c2)ccc1NC(=O)c1cc2ccccc2o1, the survival is reported as inactive: 78%. In the case of CCOc1ccccc1Nc1ncnc2c1cnn2-c1ccc(C)cc1, the survival is reported as inactive: 76%. For Cc1ccc(CNC(=O)CSc2ncc3c(n2)-c2cc(Cl)ccc2N(C)S3(=O)=O)cc1, the survival was inactive: 88%. Cc1c(C(=O)NCc2ccc(Cl)cc2)oc2ccc3c(c12)C(=O)CC(C)(C)O3 was tested, and the survival was inactive: 76%. For CCCCOc1ccc(CNC(=O)c2cccc(NC(=O)N3CCSc4ncccc43)c2)cc1, the survival was inactive: 71%. For CCCCNC(=O)C1CCCN(S(=O)(=O)CCC)C1 (stereo unspecified), the survival was inactive: 84%. CCc1nn(CC(=O)NC2CC2)c(=O)c2cc3c(OC)cccc3n12 was tested, and the survival was inactive: 84%. In the case of O=C(CCc1nc(CN2CCN(S(=O)(=O)c3ccc(Br)cc3)CC2)no1)N1CCCCC1, the survival is reported as inactive: 84%. With CCOc1ccccc1C1CC(=O)Nc2c1c(=O)n(C)c1ncnn21 (stereo unspecified) the survival was inactive: 142%. For COc1cc2c(cc1OC)C(c1cc3cc4c(cc3[nH]c1=O)OCO4)N(C(=O)c1ccco1)CC2 (stereo unspecified), the survival was inactive: 113%. In the case of COc1ccc(-n2ncc3c(NCCCOC(C)C)ncnc32)cc1, the survival is reported as active: -2%. With COc1cccc(Cn2cc(C(=O)c3ccccc3)c(=O)c3cc4c(cc32)OCO4)c1 the survival was inactive: 84%. With COc1cc2cc(CNc3ccccc3)c(=O)n(CC(=O)Nc3cccc(Cl)c3C)c2cc1OC the survival was inactive: 22%. In the case of COc1cc(NC(=O)Cn2c(=O)n(CC3CCC(C(=O)NCCc4ccccc4)CC3)c(=O)c3ccccc32)cc(OC)c1 (stereo unspecified), the survival is reported as inactive: 153%. CCc1ccc(C(=O)c2cn(CC(=O)Nc3ccc4c(c3)OCCO4)c3ccc(F)cc3c2=O)cc1 was tested, and the survival was inactive: 89%. Cc1ccc(NCc2cccn2-c2nnc(N3CCC(C(=O)NCCc4ccc(Cl)cc4)CC3)s2)cc1 was tested, and the survival was inactive: 79%. With COc1c(O)cccc1-c1nnn(CCC(=O)OCC(=O)c2ccccc2)n1 the survival was inactive: 98%. In the case of CCc1nn2c(=O)cc(COC(=O)c3cccc(NC(=O)CCc4ccccc4)c3)nc2s1, the survival is reported as inactive: 72%. COc1ccc(-n2c(C)nc3c(cnn3-c3ccc(F)cc3)c2=O)cc1 was tested, and the survival was inactive: 78%. With CCCCN(CC)CCCNC(=O)c1c(C)oc2ncnc(N3CCOCC3)c12 the survival was active: 14%. With CCn1cc(/C=C(\NC(=O)c2ccc(OC)cc2)C(=O)NCCCn2ccnc2)c2ccccc21 the survival was inactive: 100%. With COc1ccccc1CNC(=O)C1CCN(c2nc3ccc(Cl)cc3[nH]2)CC1 the survival was inactive: 19%. CCCCc1ccc(-n2nc3cc(C)c(NC(=O)c4ccc(C#N)cc4F)cc3n2)cc1 was tested, and the survival was inactive: 73%. In the case of COc1cc2c(=O)n(CCC(=O)NCC3CCCO3)c(=O)n(CC(=O)Nc3ccccc3C)c2cc1OC (stereo unspecified), the survival is reported as inactive: 106%. With CCc1nn(CC(=O)NCCc2ccc(OC)cc2OC)c(=O)c2cc3occc3n12 the survival was inactive: 81%.
